The text below walks through data of the supplement of paper PMC6609913.

SMILES strings stand for the structures. Structures can show the parent of a compound that is named as a salt. ± gives the standard deviation of the averaged measurements. The full ranking holds about 1,300 compounds; the median of “normalised cell viability” is about 1, and the lowest 2% start at about 0.14. Some of the results follow.

For this experiment, the system named is V-C8 (BRCA2-deficient hamster cells). Description: normalised cell viability (fraction of plate median); higher = more viable cells (less toxic). Conditions: 5 µM. In short, it runs like this: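 BRCA2-deficient hamster V-C8 cells and BRCA2-restored V-C8 cells were plated in 96-well plates, and library drugs were added 24 h later at 5 μM in 100 μl medium. Exposure lasted 3 days in screen 1 and 6 days in screen 2, next to solvent-only wells. Viability was then read by resazurin assay, median-plate normalised and averaged across triplicate wells.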

Turning to `Cc1ccc(-c2ncc(Cl)cc2-c2ccc(S(C)(=O)=O)cc2)cn1` [Etoricoxib], the normalised cell viability amounted to 0.95 ± 0.078 (treatment time: 3 days) and 1.04 ± 0.047 (treatment time: 6 days).
In the case of `NC12CC3CC(CC(C3)C1)C2` [Adamantamine fumarate], the normalised cell viability turned out to be 0.886 ± 0.064 (treatment time: 3 days) and 0.899 ± 0.027 (treatment time: 6 days).
In the case of `Cc1cc(=O)n(-c2ccccc2)n1C` [Antipyrine], the normalised cell viability (treatment time: 3 days) stood at 1.03 ± 0.014 and the normalised cell viability (treatment time: 6 days) is 1.05 ± 0.048.
`Clc1ccc(COC(Cn2ccnc2)c2ccc(Cl)cc2Cl)c(Cl)c1` (stereo unspecified) [Miconazole] registered a normalised cell viability (treatment time: 3 days) of 0.421 ± 0.048 and a normalised cell viability (treatment time: 6 days) of 0.473 ± 0.023.
As to `NS(=O)(=O)c1cc2c(cc1Cl)N=CNS2(=O)=O` [Chlorothiazide], the normalised cell viability was found to be 1.01 ± 0.077 (treatment time: 3 days) and 1.018 ± 0.0027 (treatment time: 6 days).
For `CN[C@H](CC(C)C)C(=O)N[C@H]1C(=O)N[C@@H](CC(N)=O)C(=O)N[C@H]2C(=O)N[C@H]3C(=O)N[C@H](C(=O)N[C@H](C(=O)O)c4cc(O)cc(O)c4-c4cc3ccc4O)[C@H](O)c3ccc(c(Cl)c3)Oc3cc2cc(c3O[C@@H]2O[C@H](CO)[C@@H](O)[C@H](O)[C@H]2O[C@H]2C[C@](C)(N)[C@H](O)[C@H](C)O2)Oc2ccc(cc2Cl)[C@H]1O` [Vancomycin hydrochloride], the normalised cell viability runs as follows: (treatment time: 3 days) 0.159 ± 0.01; (treatment time: 6 days) 0.141 ± 0.0064.
The corresponding values for `CNS(=O)(=O)Cc1ccc2[nH]cc(CCN(C)C)c2c1` [Sumatriptan succinate] are 0.992 ± 0.049 and 0.957 ± 0.12.
In the case of `CC(C)COCC(CN(Cc1ccccc1)c1ccccc1)N1CCCC1` (stereo unspecified) [Bepridil hydrochloride], the normalised cell viability is, setting by setting: (treatment time: 3 days) 0.398 ± 0.033; (treatment time: 6 days) 0.691 ± 0.011.
`NC(=O)c1ncn([C@@H]2O[C@H](CO)[C@@H](O)[C@H]2O)n1` [Ribavirin] returned a normalised cell viability (treatment time: 3 days) of 0.684 ± 0.021 and a normalised cell viability (treatment time: 6 days) of 0.552 ± 0.025.
The corresponding values for `CCOC(=O)[C@H](CCc1ccccc1)N[C@@H](C)C(=O)N1[C@H](C(=O)O)C[C@@H]2CCC[C@@H]21` [Ramipril] are 1.09 ± 0.029 and 1.15 ± 0.18.
For the molecule `CCOc1ccc2c(c1)C(C)=CC(C)(C)N2` [Ethoxyquin], the normalised cell viability was determined as 0.883 ± 0.014 (treatment time: 3 days) and 1.2 ± 0.26 (treatment time: 6 days).
The corresponding values for `NS(=O)(=O)c1cc(C(=O)O)c(NCc2ccco2)cc1Cl` [Furosemide] are 1.04 ± 0.058 and 1.06 ± 0.079.
The corresponding values for `Cc1cc(C2CCCCC2)n(O)c(=O)c1` [Ciclopirox ethanolamine] are 0.207 ± 0.012 and 0.23 ± 0.015.
With `COc1cc(C(=O)NS(=O)(=O)c2ccccc2C)ccc1Cc1cn(C)c2ccc(NC(=O)OC3CCCC3)cc12` [Zafirlukast], the normalised cell viability amounted to 1.06 ± 0.015 (treatment time: 3 days) and 1.04 ± 0.033 (treatment time: 6 days).
With `CC(C)(C)C(=O)OCOC(=O)[C@@H]1N2C(=O)[C@@H](NC(=O)[C@H](N)c3ccccc3)[C@H]2SC1(C)C` [Pivampicillin], the normalised cell viability reads like this: (treatment time: 3 days) 1.02 ± 0.075; (treatment time: 6 days) 1.01 ± 0.1.
For the molecule `O=C1NCN(c2ccccc2)C12CCN(CCCC(c1ccc(F)cc1)c1ccc(F)cc1)CC2` [Fluspirilen], the normalised cell viability reads like this: (treatment time: 3 days) 0.472 ± 0.045; (treatment time: 6 days) 0.235 ± 0.12.
In the case of `N=C(N)NC(=O)c1nc(Cl)c(N)nc1N` [Amiloride hydrochloride dihydrate], the normalised cell viability reads like this: (treatment time: 3 days) 0.998 ± 0.021; (treatment time: 6 days) 0.953 ± 0.12.
Consider `CCCCOC(=O)c1ccc(N)cc1` [Butamben], for which the normalised cell viability (treatment time: 3 days) was 0.601 ± 0.041 and the normalised cell viability (treatment time: 6 days) was found to be 0.833 ± 0.059.
Consider `CCCCC1=NC2(CCCC2)C(=O)N1Cc1ccc(-c2ccccc2-c2nnn[nH]2)cc1` [Irbesartan], for which the normalised cell viability reads like this: (treatment time: 3 days) 1.06 ± 0.026; (treatment time: 6 days) 1.12 ± 0.068.
The corresponding values for `N[C@@H]1CCCCN(c2c(F)cc3c(=O)c(C(=O)O)cn(C4CC4)c3c2Cl)C1` [Besifloxacin hydrochloride] are 1.11 ± 0.095 and 1.04 ± 0.032.
The corresponding values for `CCOc1ccccc1OCC1CNCCO1` (stereo unspecified) [Viloxazine hydrochloride] are 1.02 ± 0.038 and 0.953 ± 0.061.
In the case of `CC[C@H]1OC(=O)[C@H](C)[C@@H](O[C@H]2C[C@@](C)(OC)[C@@H](O)[C@H](C)O2)[C@H](C)[C@@H](O[C@@H]2O[C@H](C)C[C@H](N(C)C)[C@H]2O)[C@](C)(OC)C[C@@H](C)C(=O)[C@H](C)[C@@H](O)[C@]1(C)O` [Clarithromycin], the normalised cell viability was 1.03 ± 0.029 (treatment time: 3 days) and 1.1 ± 0.025 (treatment time: 6 days).
The corresponding values for `COCC1=C(C(=O)OC(C)OC(=O)OC(C)C)N2C(=O)[C@@H](NC(=O)/C(=N\OC)c3csc(N)n3)[C@H]2SC1` (stereo partly specified) [Cefpodoxime proxetil] are 1.18 ± 0.025 and 1.06 ± 0.086.
In the case of `CCN(CC)CCOC(=O)C(c1ccccc1)C1CCCCC1` (stereo unspecified) [Drofenine hydrochloride], the normalised cell viability is, setting by setting: (treatment time: 3 days) 1.02 ± 0.038; (treatment time: 6 days) 1.02 ± 0.07.
The corresponding values for `COc1cc(Cc2cnc(N)nc2N)cc(OC)c1OC` [Trimethoprim] are 1.06 ± 0.054 and 1 ± 0.059.
The corresponding values for `CO[C@@]1(NC(=O)Cc2cccs2)C(=O)N2C(C(=O)O)=C(COC(N)=O)CS[C@@H]21` [Cefoxitin sodium salt] are 1.02 ± 0.033 and 1.01 ± 0.023.
`CC(=O)c1ccc2c(c1)N(CCCN1CCC(CCO)CC1)c1ccccc1S2` [Piperacetazine]: the normalised cell viability runs as follows: (treatment time: 3 days) 0.84 ± 0.1; (treatment time: 6 days) 0.89 ± 0.079.
For the molecule `O=C(CCCN1CCC(O)(c2ccc(Br)cc2)CC1)c1ccc(F)cc1` [Bromperidol], the normalised cell viability is 1.09 ± 0.19 (treatment time: 3 days) and 0.955 ± 0.026 (treatment time: 6 days).
The corresponding values for `CCCCC(CC)CN1CN(CC(CC)CCCC)CC(C)(N)C1` (stereo unspecified) [Hexetidine] are 0.973 ± 0.094 and 1.04 ± 0.085.
The corresponding values for `COc1cc2c(cc1OC)C(=O)C(CC1CCN(Cc3ccccc3)CC1)C2` (stereo unspecified) [Donepezil hydrochloride] are 0.957 ± 0.087 and 0.983 ± 0.011.
`CN1C(C(=O)Nc2ccccn2)=C(O)c2sccc2S1(=O)=O` [Tenoxicam]: the normalised cell viability is, setting by setting: (treatment time: 3 days) 1.03 ± 0.043; (treatment time: 6 days) 1.02 ± 0.019.
`Cc1ncc([N+](=O)[O-])n1CC(O)CCl` (stereo unspecified) [Ornidazole]: the normalised cell viability came to 0.945 ± 0.069 (treatment time: 3 days) and 1.34 ± 0.32 (treatment time: 6 days).
As to `Cc1cccc(C)c1NC(=O)C1CCCCN1C` (stereo unspecified) [Mepivacaine hydrochloride], the normalised cell viability reads like this: (treatment time: 3 days) 0.981 ± 0.031; (treatment time: 6 days) 0.988 ± 0.053.
